Laboratory results: article PMC11995724, “Antibiotic target discovery by integrated phenotypic and activity-based profiling of electrophilic fragments” (Cell chemical biology, 2025)
Hit rate of the full screen: of about 3,200 compounds, about 75 (2%) showed an effect of 50% or more. The list shows a part of the results.

test system: T1, S. aureus MSSA476; design: species or system S. aureus MSSA476 (TSB) or V. cholerae SAD30 (LB); 384-well bacterial growth screen at 25 uM, OD600 relative to DMSO control; details: relative growth, OD600, TSB; 25 µM; inhibitor
T1 construct: MSSA476

Row | Compound | % of control remaining
1 | C=CC(=O)Nc1ccc(OC)cc1S(C)(=O)=O [1-C04, N-(2-methanesulfonyl-4-methoxyphenyl)prop-2-enamide] | 93.8901%
2 | C=CC(=O)N1CCOCC1c1ncnn1Cc1ccccc1 (stereo not shown) [1-L12, 1-[3-(1-benzyl-1H-1,2,4-triazol-5-yl)morpholin-4-yl]prop-2-en-1-one] | 117.451%
3 | O=C(CCl)N1c2ccccc2Sc2ccc(Cl)cc21 [4-N07, 2-chloro-1-(2-chloro-10H-phenothiazin-10-yl)ethan-1-one] | 3.049%
4 | Cc1cccc(NC(=O)C(C#N)=Cc2cnc3ccc(C#N)cn23)c1 [9-O18, 2-cyano-3-{6-cyanoimidazo[1,2-a]pyridin-3-yl}-N-(3-methylphenyl)prop-2-enamide] | 102.472%
5 | CCOC(=O)c1c2c(nn1C)CCN(C(=O)C(C)Cl)C2 (stereo not shown) [7-I07, ethyl 5-(2-chloropropanoyl)-2-methyl-2H,4H,5H,6H,7H-pyrazolo[4,3-c]pyridine-3-carboxylate] | 92.3077%
6 | Cc1cc(C(C)(C)C)cc(C)c1NC(=O)CCl [4-L19, N-(4-tert-butyl-2,6-dimethylphenyl)-2-chloroacetamide] | 128.823%
7 | COc1ccc2c(c1)CCCN(C(=O)C(C)Cl)C2 (stereo not shown) [5-D17, 2-chloro-1-(7-methoxy-2,3,4,5-tetrahydro-1H-2-benzazepin-2-yl)propan-1-one] | 114.754%
8 | C=CC(=O)N1CSCC1C(=O)N1CCOCC1 (stereo not shown) [2-N21, 1-[4-(morpholine-4-carbonyl)-1,3-thiazolidin-3-yl]prop-2-en-1-one] | 119.06%
9 | C=CC(=O)Nc1cc(Cl)cc(C)c1OC [1-E16, N-(5-chloro-2-methoxy-3-methylphenyl)prop-2-enamide] | 104.44%
10 | NS(=O)(=O)c1cccc(N2C(=O)C=CC2=O)c1 [10-I05, 3-(2,5-dioxo-2,5-dihydro-1H-pyrrol-1-yl)benzene-1-sulfonamide] | 115%
11 | O=C1C=CC(=O)N1c1cc(C(F)(F)F)ccc1Cl [10-G09, 1-[2-chloro-5-(trifluoromethyl)phenyl]-2,5-dihydro-1H-pyrrole-2,5-dione] | 133.75%
12 | CC(Cl)C(=O)N1Cc2ccccc2OC(C)(C)C1 (stereo not shown) [6-H19, 2-chloro-1-(2,2-dimethyl-2,3,4,5-tetrahydro-1,4-benzoxazepin-4-yl)propan-1-one] | 123.951%
13 | C#Cc1cccc(N(Cc2cc3n(n2)CCCO3)C(=O)CCl)c1 [5-O10, 2-chloro-N-(3-ethynylphenyl)-N-({5H,6H,7H-pyrazolo[3,2-b][1,3]oxazin-2-yl}methyl)acetamide] | 100.182%
14 | C=CC(=O)Nc1ccc(-n2ccccc2=O)cc1F [3-J16, N-[2-fluoro-4-(2-oxo-1,2-dihydropyridin-1-yl)phenyl]prop-2-enamide] | 109.36%
15 | C=CC(=O)NC(C)c1nc(C2CCCCC2)no1 (stereo not shown) [1-N17, N-[1-(3-cyclohexyl-1,2,4-oxadiazol-5-yl)ethyl]prop-2-enamide] | 112.176%
16 | C=CC(=O)N1CCC(C(=O)NC2CCCc3cc(F)ccc32)CC1 (stereo not shown) [2-K18, N-(6-fluoro-1,2,3,4-tetrahydronaphthalen-1-yl)-1-(prop-2-enoyl)piperidine-4-carboxamide] | 104.787%
17 | CC(Cl)C(=O)N1CCCN(C(=O)c2cc(Cl)cn2C)CC1 (stereo not shown) [7-N07, 2-chloro-1-[4-(4-chloro-1-methyl-1H-pyrrole-2-carbonyl)-1,4-diazepan-1-yl]propan-1-one] | 91.6797%
18 | CC(Cl)C(=O)NC(C)c1ccc(Cl)cc1Cl (stereo not shown) [5-M15, 2-chloro-N-[1-(2,4-dichlorophenyl)ethyl]propanamide] | 98.3607%
19 | C=CC(=O)N1CCC(c2nc(C)no2)CC1 [3-E05, 1-[4-(3-methyl-1,2,4-oxadiazol-5-yl)piperidin-1-yl]prop-2-en-1-one] | 88.1149%
20 | COc1ccc(CCN2C(=O)C=CC2=O)cc1OC [10-H07, 1-[2-(3,4-dimethoxyphenyl)ethyl]-2,5-dihydro-1H-pyrrole-2,5-dione] | 119.687%
21 | C=CC(=O)NCC1OCCc2sc(F)cc21 (stereo not shown) [2-P09, N-({2-fluoro-4H,6H,7H-thieno[3,2-c]pyran-4-yl}methyl)prop-2-enamide] | 92.2541%
22 | N#CC(=Cc1ccco1)C(=O)Nc1ccc2nc(S)oc2c1 [9-E16, 2-cyano-3-(furan-2-yl)-N-(2-sulfanyl-1,3-benzoxazol-6-yl)prop-2-enamide] | 94.9813%

Row | Compound | % of control remaining
23 | CC(Cl)C(=O)N(C)Cc1nccn1Cc1ccccc1 (stereo not shown) [6-J09, N-[(1-benzyl-1H-imidazol-2-yl)methyl]-2-chloro-N-methylpropanamide] | 89.4634%
24 | C=CC(=O)NC[C@@H]1C=C[C@H]2C[C@@H]1CO2 (racemic) [1-I03, rac-N-{[(1R,2S,5S)-6-oxabicyclo[3.2.1]oct-3-en-2-yl]methyl}prop-2-enamide] | 103.385%
25 | C=CC(=O)N(CC)CC(=O)N1CCCC(N2CCCS2(=O)=O)C1 (stereo not shown) [3-I08, N-{2-[3-(1,1-dioxo-1lambda6,2-thiazolidin-2-yl)piperidin-1-yl]-2-oxoethyl}-N-ethylprop-2-enamide] | 102.046%
26 | Cc1cc(C=C2CCN(C(=O)C(C)Cl)CC2)no1 (stereo not shown) [6-N03, 2-chloro-1-{4-[(5-methyl-1,2-oxazol-3-yl)methylidene]piperidin-1-yl}propan-1-one] | 96.2927%
27 | CS(=O)(=O)c1ccc(C(=O)CCl)cc1 [10-I13, 2-chloro-1-(4-methanesulfonylphenyl)ethan-1-one] | 83.125%
28 | C=CC(=O)N1CCC(C(=O)N2CCCC(O)C2)(c2ccccc2)CC1 (stereo not shown) [2-P06, 1-[4-(3-hydroxypiperidine-1-carbonyl)-4-phenylpiperidin-1-yl]prop-2-en-1-one] | 83.2028%
29 | CC(Cl)C(=O)NCc1nc(C2CC2)n[nH]1 (stereo not shown) [7-L19, 2-chloro-N-[(3-cyclopropyl-1H-1,2,4-triazol-5-yl)methyl]propanamide] | 97.9592%
30 | O=C(CCl)NCCOc1ccc2ccccc2c1 [6-A14, 2-chloro-N-[2-(naphthalen-2-yloxy)ethyl]acetamide] | 84.6829%
31 | Cc1cc(=O)[nH]c(-c2cccc(NC(=O)C(C#N)=Cc3ccco3)c2)n1 [8-B10, 2-cyano-3-(furan-2-yl)-N-[3-(4-methyl-6-oxo-1,6-dihydropyrimidin-2-yl)phenyl]prop-2-enamide] | 105.892%
32 | C=CC(=O)N1CCOCC1c1ccnn1C (stereo not shown) [3-I19, 1-[3-(1-methyl-1H-pyrazol-5-yl)morpholin-4-yl]prop-2-en-1-one] | 109.36%
33 | CC(C)NC(=O)C(C#N)=Cc1ccc(C(F)(F)F)cc1 [8-L13, 2-cyano-N-(propan-2-yl)-3-[4-(trifluoromethyl)phenyl]prop-2-enamide] | 90.6224%
34 | COC(=O)c1ccc2[nH]cc(C(=O)CCl)c2c1 [10-D05, methyl 3-(2-chloroacetyl)-1H-indole-5-carboxylate] | 113.75%
35 | CC(C)NC(=O)C(C#N)=Cc1cccc(C(F)(F)F)c1 [9-J13, 2-cyano-N-(propan-2-yl)-3-[3-(trifluoromethyl)phenyl]prop-2-enamide] | 99.176%
36 | C=CC(=O)N1CCC(C(=O)N2CCC[C@H]2c2ncn[nH]2)CC1 [2-D12, 1-{4-[(2S)-2-(1H-1,2,4-triazol-5-yl)pyrrolidine-1-carbonyl]piperidin-1-yl}prop-2-en-1-one] | 119.06%
37 | Cc1cc(C=C(C#N)C(=O)NCc2ccccc2)c(C)n1C1CC1 [8-G14, N-benzyl-2-cyano-3-(1-cyclopropyl-2,5-dimethyl-1H-pyrrol-3-yl)prop-2-enamide] | 99.5851%
38 | N#CC(=Cc1cccc2c1OCCCO2)C(=O)NCc1ccccc1 [9-G05, N-benzyl-2-cyano-3-(3,4-dihydro-2H-1,5-benzodioxepin-6-yl)prop-2-enamide] | 76.7041%
39 | C=CC(=O)Nc1ccc(C(=O)Nc2ccc(N3CCOCC3)nc2)cc1 [1-K15, N-[6-(morpholin-4-yl)pyridin-3-yl]-4-(prop-2-enamido)benzamide] | 124.132%
40 | CC(Cl)C(=O)N1Cc2ccccc2C(n2cccn2)C1 (stereo not shown) [6-F20, 2-chloro-1-[4-(1H-pyrazol-1-yl)-1,2,3,4-tetrahydroisoquinolin-2-yl]propan-1-one] | 95.9512%
41 | CC(Cl)C(=O)Nc1cccc2ncccc12 (stereo not shown) [4-M10, 2-chloro-N-(quinolin-5-yl)propanamide] | 120.438%
42 | C=CC(=O)N(C)CC(=O)NC(C)c1ncc(C)s1 (stereo not shown) [3-I14, N-methyl-N-({[1-(5-methyl-1,3-thiazol-2-yl)ethyl]carbamoyl}methyl)prop-2-enamide] | 86.3735%
43 | O=C(CCl)N(Cc1cccs1)C1CCS(=O)(=O)C1 (stereo not shown) [4-L12, 2-chloro-N-(1,1-dioxo-1lambda6-thiolan-3-yl)-N-[(thiophen-2-yl)methyl]acetamide] | 106.717%
